Reference: the RNAGym collection of RNA variant scans (doi:10.1093/nar/gkz1192)
The source gives no read counts; variants with many changes may rest on few reads.

B1: CPEB3 Ribozyme (parent)
chain: UAACAGGGGGCCACAGCAGAAGCGUUCACGUCGCAGCCCCUGUCAGAUUCUGGUGAAUCUGCGAAUUCUGCUGUAUAUCUC

Variants of: B1
Experiment: self-cleavage, relative activity (ratio to wild type); higher = more cleavage; in vitro, sequencing
Procedure, shortened: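 CPEB3 self-cleaving ribozyme mutant libraries were made by rounds of error-prone PCR, barcoded, and transcribed in vitro with T7 RNA polymerase for 5 hours at 37°C. Cleavage occurred during transcription and a 15 min DNase I step before EDTA stop. RNAs were reverse transcribed with template switching and Illumina-sequenced, with DNA sequencing mapping barcodes to variants. Relative activity is the variant's cleaved/total read fraction divided by wild type's (minimum 5 reads), averaged across three batches.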

| Variant | self-cleavage |
| --- | --- |
| UAACAGGGGGCCACAGAAGAAGCGUUCACGUCGCAGCCCCUGUCAGAUUCUGGUGAAUCUGCGAAUUCCGCAGUAUAUCUC [C17A U69C U72A] | 0.08 |
| UAACAGGGGGCCACAGAAGAAGCGUUCACGUCGCAGCCCCUGUCAGAUUCUGGUGAAUCUGCGAAUUCUGCCGUAUAUCCC [C17A U72C U80C] | 0.33 |
| UAACAGGGGGCCACAGGGGAGGCGUUCACGCCGCAGCCCCUGUCAGAUUCAGGUGAAUCUGCGAAUUCUGCUGUAUAUCUC [C17G A18G A21G U31C U51A] | 0 |
| UAACAGGGGGCCACAGGGGAAGCGCUCACGUCGGAACCCCUGUCAGAUUCUGGUGAAUCUGCGAACUCUGCUGUAUAUUUC [C17G A18G U25C C34G G36A U66C C79U] | 0.29 |
| UAACAGGGGGCCACAGGUGAAGCGUUCACGUCGCGGCCCCUGUCAGAUUCUGGUGAAUCUGCGAAUUCUGCAGUAUAUCUC [C17G A18U A35G U72A] | 0.13 |
| UAACAGGGGGCCACAGGUGAAGCGUUCACGUCGCAGCCCCUGUCAGAUUCUGGUGAAUCUGCGAAUUCUGCUGUAUAUCCC [C17G A18U U80C] | 0.14 |
| UAACAGGGGGCCACAGGAGGAGCGUCCACGUCGCAGCCCCUGUCAGAUCCUGGUGAGCCUGCGAAUUCUGCUGUAUAUCUC [C17G A20G U26C U49C A57G U58C] | 0.33 |
| UAACAGGGGGCCACAGGAGUAGCGUUCACGUUGCAGCCCCUGUCAGAUUCUGGUGAAUCUGCGAAUUCUGCUGUAUAUCUC [C17G A20U C32U] | 0.32 |
| UAACAGGGGGCCACAGGAGAGGCGUUCACGUCGCAGCCCCUGUCAGAUUCUGGUGAAUCUGCGGAUCCUGCUGUAUAUCUC [C17G A21G A64G U67C] | 0.24 |
| UAACAGGGGGCCACAGGAGAGGCGUUCACGUCGCAGCCCCUGUCAGAUUCUGGUGAACCUGCGAAUUCUGCUGUAUAUCUC [C17G A21G U58C] | 0.06 |
| UAACAGGGGGCCACAGGAGAUGCGUUCACGUCGCAGCCCCUGUCAGAUUCUGGUGGAUCUGCGAAUUCUGCUGUAUAUCUC [C17G A21U A56G] | 0.2 |
| UAACAGGGGGCCACAGGAGAAGCGUUCGCGUCGCAGCCCCUGUCAGAUUCUGGUGAAUCUGCGGAUUCUGCUGUAUAUCUC [C17G A28G A64G] | 0.11 |
| UAACAGGGGGCCACAGGAGAAGCGUUCGCGUCGUAGCCCCUGUCAGAUUCUGGUGAAUCUGCGAAUUCUGCUGCACAUCUC [C17G A28G C34U U74C U76C] | 0.1 |
| UAACAGGGGGCCACAGGAGAAGCGUUCUCGUCGCAGCCCCUGUCAGAUUCUGGUGAAUCUGCGAAUUCUGCUGUAUAACUC [C17G A28U U78A] | 0.21 |
| UAACAGGGGGCCACAGGAGAAGCGUUCACGUCGCGGCCCCCGUCAGAUUCUGGUGAAUCUGCGUAUUCUGCUGUAUAUCUC [C17G A35G U41C A64U] | 0.08 |
| UAACAGGGGGCCACAGGAGAAGCGUUCACGUCGCGGCCCCUGUCAGAUUCUGGUGAACCUGCGAAUUCUGCUGUGUACCUC [C17G A35G U58C A75G U78C] | 0.35 |
| UAACAGGGGGCCACAGGAGAAGCGUUCACGUCGCAGCCCCUGUCAGAUUCUGGUGAAUCUGCGUAUUCUGCUGUAUGUCUC [C17G A64U A77G] | 0.11 |

| Variant | self-cleavage |
| --- | --- |
| UAACAGGGGGCCACAGGAGAAGGGUUCACGUCGCAGCCCCUGCCAGAUUCUGGUGAAUCUGCGAGUUCUGCCGUAUAUCCC [C17G C23G U43C A65G U72C U80C] | 0.12 |
| UAACAGGGGGCCACAGGAGAAGCGUUCACGUCGCAGUCCCUGACAGAUUCUGGUGAAUCUGCGAAUUCUGCUGUAUACCUC [C17G C37U U43A U78C] | 0.34 |
| UAACAGGGGGCCACAGGAGAAGCGUUCACGUCGCAGCCCCUGUCAGAUUCUGGUGAAUCUGUGGAUUCUGCUGUAUAUCUC [C17G C62U A64G] | 0.08 |
| UAACAGGGGGCCACAGGAGAAGCGUUCACGUCGCAGCCCCUGUCAGAUUCUGGUGAAUCUGUGAAUUCUGCUGUAUAUCCC [C17G C62U U80C] | 0.05 |
| UAACAGGGGGCCACAGGAGAAGCGCUCACGUCGCAGCCCCUGUCAGAUUCUGGUGGAUCUGCGAAUUCUGCAGUAUAUCUC [C17G U25C A56G U72A] | 0.14 |
| UAACAGGGGGCCACAGGAGAAGCGCUCACGUCGCAGCCCCUGUCAGAUUCUGGUGAAUCUGCGGAUUCUGCUGUAUAUCUC [C17G U25C A64G] | 0.05 |
| UAACAGGGGGCCACAGGAGAAGCGUACACGUCGCAGCCCCUGGCAGAUUCAGGUGAAUCUGCGGAUUCCGCUGUAUAUCUC [C17G U26A U43G U51A A64G U69C] | 0.08 |
| UAACAGGGGGCCACAGGAGAAGCGUUCACGUCGCAGCCCCAGUCAGAUUCUGGUGAAUCUGCGAAUUCUGCUGUACAUCUC [C17G U41A U76C] | 0.11 |
| UAACAGGGGGCCACAGGAGAAGCGUUCACGUCGCAGCCCCAGUCAGAUUCUGGUGAAUCUGCGAAUUCUGCUGUAUAACUC [C17G U41A U78A] | 0.41 |
| UAACAGGGGGCCACAGGAGAAGCGUUCACGUCGCAGCCCCGGUCAGAUUCUGGCGAAUCUGCGAAUUCUGCUGUAUAUCUC [C17G U41G U54C] | 0.16 |
| UAACAGGGGGCCACAGGAGAAGCGUUCACGUCGCAGCCCCUGCCAGAUUCCGGUGAAUCUGCGAAUUCUGCAGUAUAUCUC [C17G U43C U51C U72A] | 0.18 |
| UAACAGGGGGCCACAGGAGAAGCGUUCACGUCGCAGCCCCUGUCAGAUACUGGUGAAUCUGCGAAUUCUGCUGUAUACCUC [C17G U49A U78C] | 0.36 |
| UAACAGGGGGCCACAGGAGAAGCGUUCACGUCGCAGCCCCUGUCAGAUUCAGGUGAAUCUGCGUAUUCUGCUGUAUAUCUC [C17G U51A A64U] | 0.37 |
| UAACAGGGGGCCACAGUGGAAGCACUCACGUCGCAGCCCCAGUCAGAUUCUGGUGAAUCUGCGAAGUCUGCUGUAUAUCUC [C17U A18G G24A U25C U41A U66G] | 0.05 |
| UAACAGGGGGCCACAGUGGAAGCGCCCACGUCGCAGCCCCUGUCAGAUUCCGGUGAUUCUGCGAAUUCUGCUGUAUAUCUC [C17U A18G U25C U26C U51C A57U] | 0.07 |
| UAACAGGGGGCCACAGUGGAAGCGUUCACGUCGCAGCCCCUGACAGAUUCUGGUGAAUCUGCGAAUUCUGCCGUAUAUCUC [C17U A18G U43A U72C] | 0.33 |
| UAACAGGGGGCCACAGUGGAAGCGUUCACGUCGCAGCCCCUGUCAGAUUCUGGAGAAUCUGCGAAUUCUGCUAUAUAACCC [C17U A18G U54A G73A U78A U80C] | 0.96 |
